In PMC13083723 (Patterns, 2026):
Screen size: about 5,400 compounds; about 190 (3.5%) showed an effect of 50% or more. Some of the results follow. Positions of bridges follow the written chain, without caps; N, C: chain ends. Non-standard residues stand in square brackets, D forms with d. Residues, ends and D or L forms follow the SMILES beside them. ξ: configuration not given here. ξThr(3R) = C[C@@H](O)C(N)C(=O)O

System: Vero-E6
Assay: primary screen, phospholipidosis by LipidTOX staining; higher = more effect of the substance
Details: 10 µM
Outline: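 Drug-induced phospholipidosis detected with HCS LipidTOX Red reagent in Vero-E6 cells. Compounds tested at 10 μM, with amiodarone (10 μM) as positive control and DMSO (0.1 v/v %) as vehicle.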

| Structure (SMILES) | result_ITMP |
| --- | --- |
| COc1ccc([C@@H]2CNC(=O)C2)cc1OC1CCCC1 | -0.04% |
| COc1ccc(C[C@H]2NC[C@H](O)[C@H]2OC(C)=O)cc1 | -2.85% |
| Nc1ccc(S(=O)(=O)Nc2ncccn2)cc1 | -3.05% |
| Cc1c(C)c2c(c(C)c1O)CCC(C)(C)O2 | -2.28% |
| CCCC(C)NC(=O)c1ccc(Cl)c(Cl)c1 (stereo not shown) | -0.37% |
| O=C(O)c1ccc(N[C@H]2O[C@H](CO)[C@@H](O)[C@H](O)[C@@H]2O)cc1 | -5.7% |
| Clc1ccccc1CN1CCc2sccc2C1 | 5.84% |
| O=C(O)/C=C(/CC(=O)O)C(=O)O | -1.87% |
| CCC(=O)O[C@H](CC(=O)O)C[N+](C)(C)C | -1.2% |
| COc1cc(Br)c(S(=O)(=O)Nc2ccc(Cl)c(O[C@@H]3CCN(C)C3)c2)cc1OC | 0.95% |
| CCN(CC)CCOC(=O)C1(c2ccc([N+](=O)[O-])cc2)CCCC1 | 9.04% |
| Ic1cc(-c2ccccc2)ncn1 | -2.32% |
| Nc1ccc(O)c(C(=O)O)c1 | -0.32% |
| N[C@@H]1[C@H]2CN(c3nc4c(cc3F)c(=O)c(C(=O)O)cn4-c3ccc(F)cc3F)C[C@@H]12 | 0.39% |
| O=C(Nc1c(-c2cccs2)nc2ccccn12)c1ccc(Cl)cc1 | -0.29% |
| NCC1CC(=O)N(Cc2ccccc2)C1 (stereo not shown) | -5.56% |
| CC(=O)N[C@@H](CC(=O)O)C(=O)N[C@@H](CCC(=O)O)C(=O)O (Ac-Asp-Glu-OH) | -0.28% |
| Cc1cc(C(C)(C)CC(C)(C)C)ccc1OCCOCC[N+](C)(C)Cc1ccccc1 | -6.14% |
| Cc1cc(NC(=O)C2=C(O)c3ccccc3S(=O)(=O)N2C)no1 | 1.26% |
| Nc1nccc(-c2c(-c3ccc(F)cc3)ncn2C2CCCCC2)n1 | -1.28% |
| O=C1c2ccccc2C(=O)c2ccccc21 | -4.71% |

| Structure (SMILES) | result_ITMP |
| --- | --- |
| c1cc(-c2sc(-c3ccncc3)c(-c3ccncc3)c2-c2ccncc2)ccn1 | -1.74% |
| O=C(Nc1cc(-c2ccccc2)nn1-c1ccccc1)c1ccc([N+](=O)[O-])cc1 | 1.13% |
| CO[C@@H]1[C@@H](O[C@@H]2O[C@H](C)[C@@H](O[C@H]3C[C@@](C)(O)[C@H](O)[C@H](C)O3)[C@H](N(C)C)[C@H]2O)[C@@H](CC=O)C[C@@H](C)[C@@H](O[C@H]2CC[C@H](N(C)C)[C@@H](C)O2)/C=C/C=C/C[C@H](C)OC(=O)C[C@H]1O | -7.34% |
| CO[C@@]1(NC(=O)C2SC(=C(C(N)=O)C(=O)O)S2)C(=O)N2C(C(=O)O)=C(CSc3nnnn3C)CS[C@@H]21 (stereo partly shown) | -3.07% |
| CN(C)CCCN1c2ccccc2CCc2ccc(Cl)cc21 | 47.3% |
| COC(=O)N1CCN(Cc2cccc(NC(=O)Nc3ccc(C)nc3)c2F)CC1 | -1.16% |
| O=C1CCC(c2ccccc2)(C2CCN(Cc3ccc(I)cc3)CC2)C(=O)N1 (stereo not shown) | 30.2% |
| COCCN(C(=O)c1cc(OC)c(OC)c(OC)c1)c1nc(-c2ccccc2)cs1 | -0.65% |
| CCCCCCCCCCCCCCCCCCOC[C@H](COP(=O)([O-])OCC[N+](C)(C)C)OC | 7.43% |
| COC(=O)C1=C(C)NC(C)=C(C(=O)OC)C1c1ccccc1[N+](=O)[O-] | -3.4% |
| CCCCCCCC(=O)N[C@H](CN1CCCC1)[C@H](O)c1ccc2c(c1)OCCO2 | 51.9% |
| C[C@@H]1NC(=O)[C@@H]2CCCN2C(=O)[C@H](CC(N)=O)NC(=O)[C@@H]2CSSC[C@H](N)C(=O)N[C@H]3CSSC[C@H](NC1=O)C(=O)NC([C@@H](C)O)C(=O)NCC(=O)N[C@H](C(=O)N[C@@H](Cc1ccc(O)cc1)C(=O)O)CSSC[C@H](NC(=O)[C@H](Cc1ccc(O)cc1)NC(=O)[C@H](CCC(=O)O)NC3=O)C(=O)N2 (stereo partly drawn) (H-CCEYCCNPAC[ξThr(3R)]GCY-OH; disulfide 1-6, 2-10, 5-13) | -6.32% |
| CN(C)c1nc(N)c(C(=O)Nc2cccnc2)nc1Cl | -1.56% |
| N#Cc1ccc(NCCNCC(=O)N2CCC[C@H]2C#N)nc1 | -4.45% |
| COc1cc(N2CCN(C)CC2)ccc1Nc1nccc(-c2cn(C)c3cnccc23)n1 | 12.4% |
| COc1cc2c(cc1O)CC[C@@H]1[C@@H]2CC[C@]2(C)[C@@H](O)CC[C@@H]12 | 3.54% |
| NC(=O)c1ncn([C@@H]2O[C@H](CO)[C@@H](O)[C@H]2O)c1N | -3.54% |
| CC1=C(/C=C/C(C)=C/C=C/C(C)=C/C(=O)Nc2ccc(O)cc2)C(C)(C)CCC1 | -0.7% |
| CCC(=O)O[C@H]1[C@H](O[C@@H]2[C@@H](C)[C@H](O[C@H]3C[C@@](C)(OC)[C@@H](O)[C@H](C)O3)[C@@H](C)C(=O)O[C@H](CC)[C@@](C)(O)[C@H](O)[C@@H](C)C(=O)[C@H](C)C[C@@]2(C)O)O[C@H](C)C[C@@H]1N(C)C | -2.03% |
| Cc1ccc(Cl)c(OCC(O)CNC(C)(C)C)c1 (stereo not shown) | 35.5% |
| Cc1ccc(F)cc1C(=O)Nc1ccc(C(=O)N2Cc3cccn3Cc3ccccc32)c(Cl)c1 | 9.56% |

| Structure (SMILES) | result_ITMP |
| --- | --- |
| NC(=O)c1ccc(-c2nc(-c3ccc4c(c3)OCO4)c(-c3ccccn3)[nH]2)cc1 | 0.7% |
| COc1ccc(CC2NCCc3c2[nH]c2ccc(C)cc32)c(Cl)c1OC (stereo not shown) | 42.7% |
| C[N+]12CCC(CC1)C(OC(=O)C(O)(c1ccccc1)c1ccccc1)C2 (stereo not shown) | -3.37% |
| C/C(=N\NC(=O)[C@@H]1C(=O)NC[C@H]1c1ccccc1)c1cccc(Br)c1 | 6.04% |
| O=C(O)c1cc(O)c2c(c1)[C@H]([C@H]1c3cc(C(=O)O)cc(O)c3C(=O)c3c(O[C@@H]4O[C@H](CO)[C@@H](O)[C@H](O)[C@H]4O)cccc31)c1cccc(O[C@@H]3O[C@H](CO)[C@@H](O)[C@H](O)[C@H]3O)c1C2=O | 0.26% |
| CC(=O)[C@H]1CC[C@H]2[C@@H]3CC[C@@H]4C[C@H](O)CC[C@]4(C)[C@H]3CC[C@]12C | -1.08% |
| C[C@@H]1OC(O)[C@H](O)[C@H](O)[C@H]1O (stereo partly shown) | -1.39% |
| CC(=O)Oc1cc(C(C)C)c(OCCN(C)C)cc1C | 2.56% |
| CCOc1c(N2CCOCC2)cnn(C)c1=O | -3.66% |
| CC(c1cc2ccccc2s1)N(O)C(N)=O (stereo not shown) | 3.44% |
| CC1=C(C(=O)OC2CCCCC2)C(c2ccc([N+](=O)[O-])cc2)C2=C(CC(C)(C)CC2=O)N1 (stereo not shown) | 4.04% |
| C[C@@H]1C(=O)O[C@H]2C[C@@]34[C@H]5C[C@@H](C(C)(C)C)[C@]36[C@@H](OC(=O)[C@@H]6O)O[C@@]4(C(=O)O5)[C@]21O | -6.46% |
| CC[N+](C)(CC)CC(=O)Nc1c(C)cccc1C | -1.87% |
| O=C(O)C(Cc1ccccc1[N+](=O)[O-])=NNc1nc(-c2ccc(Cl)c(Cl)c2)cs1 (mixture of isomers) | -7.04% |
| C[C@H](N)C(=O)NCC(=O)N[C@H]1CSSC[C@@H](C(=O)O)NC(=O)[C@H](CO)NC(=O)[C@H]([C@@H](C)O)NC(=O)[C@H](Cc2ccccc2)NC(=O)[C@H]([C@@H](C)O)NC(=O)[C@H](CCCCN)NC(=O)[C@H](Cc2c[nH]c3ccccc23)NC(=O)[C@H](Cc2ccccc2)NC(=O)[C@H](Cc2ccccc2)NC(=O)[C@H](CC(N)=O)NC(=O)[C@H](CCCCN)NC1=O | 0.28% |
| OB1OCc2cc(Cl)ccc21 | 1.41% |
| C[N+]1(C)C2CC(OC(=O)[C@@H](CO)c3ccccc3)CC1C1OC12 (stereo partly shown) | -2.43% |
| C[n+]1cccc(C(=O)[O-])c1 | -3.38% |
| CCCCCCCCCCCCCCC[C@@H](O)[C@@H](N)CO | -0.49% |
| COc1cc(C)c(/C=C/C(C)=C/C=C/C(C)=C/C(=O)O)c(C)c1C | 0.98% |
| CCCCCCCCCCCCCCCCCC(=O)OCC(O)CO (stereo not shown) | -2.54% |

| Structure (SMILES) | result_ITMP |
| --- | --- |
| CC(C)(F)C[C@H](N[C@@H](c1ccc(-c2ccc(S(C)(=O)=O)cc2)cc1)C(F)(F)F)C(=O)NC1(C#N)CC1 | 1.59% |
| COc1cc(-n2c(S)nc3ccccc3c2=O)c(Cl)cc1Cl | -8.31% |
| C[C@@]12N[C@@H](Cc3ccccc31)c1ccccc12 | 8.79% |
| CC(CC(C(N)=O)(c1ccccc1)c1ccccc1)N(C)C (stereo not shown) | -2.3% |
| NS(=O)(=O)c1cc2c(cc1Cl)NCNS2(=O)=O | -2.21% |
| O=C1C(=O)N(Cc2ccc(Cl)c(Cl)c2)c2ccccc21 | -3.12% |
| O=C(NC1CCOCC1)c1ccc(-c2cc(-c3c[nH]nc3-c3ccccn3)ccn2)cc1 | -6.7% |
| C[N+]1(C)CCC(=C(c2ccccc2)c2ccccc2)CC1 | -10.1% |
| COc1ccc(-c2noc(CC(=O)O)c2-c2ccc(OC)cc2)cc1 | -3.22% |
| CN(C)CCc1c[nH]c2ccc(C[C@H]3COC(=O)N3)cc12 | 5.78% |
| O=C1c2cccc(O)c2C(=O)c2c(O)cc(CO)cc21 | -4.58% |
| CN(C)CCC=C1c2ccccc2C=Cc2ccccc21 | 71.1% |
| CC(=O)N[C@@H](CSSC[C@H](NC(C)=O)C(=O)O)C(=O)O | -11.7% |
| CSc1ccc(C(=O)c2nc(O)[nH]c2C)cc1 | -1.45% |
| NCCCCN(Cc1nc2ccccc2[nH]1)[C@H]1CCCc2cccnc21 | 1.31% |
| C/C(=N\NC(=S)N1CCC1)c1ccccn1 | -1.79% |
| Nc1ccc(C(=O)Oc2ccccc2)c(O)c1 | -2.08% |
| O=C(Nc1ccc2[nH]ccc2c1)c1ccccc1 | -1.72% |
| Oc1ccc(O)cc1 | -3.83% |
